Experimental data from the supplement of paper PMC9151546.
Most values come without repeats; read them as rough.

Tests used:
CHO-K1 [1] = assay: micronucleus frequency (% of nucleated events); higher = more micronuclei (genotoxic)
CHO-K1 [2] = assay: hypodiploid nuclei frequency (% of nucleated events); higher = more hypodiploid events (aneugenic)
Description: (§1)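 Flow-cytometric in vitro micronucleus assay (Litron MicroFlow) in CHO-K1 cells in 96-well plates, 19 concentrations (4.5-200 µM, n=1 per concentration). Without S9, cells were exposed for 24 h and sampled at 48 h. With Aroclor 1254-induced rat liver S9, cells were exposed for 3-4 h and sampled at 27-28 h. Read-outs are %MN and %hypodiploid nuclei relative to nucleated events, and relative survival as the nuclei-to-bead ratio versus the 1% DMSO vehicle control (x100).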

CHO-K1 [3] = assay: relative survival (nuclei to bead ratio vs DMSO control) (% of vehicle control); higher = more surviving cells
Description: as §1
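Wherever hypodiploid nuclei frequency (% of nucleated events) is given: hypodiploid nuclei gated on a flow cytometer with 488 nm excitation after SYTOX Green staining, cultures at 37 °C, positive controls vinblastine without S9 and cyclophosphamide with S9.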
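Wherever micronucleus frequency (% of nucleated events) is given: cells lysed with nuclei stained by SYTOX Green, then micronucleus-gated events counted against nucleated events by flow cytometry with 488 nm excitation.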
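Wherever relative survival (nuclei to bead ratio vs DMSO control) is given: Lysed-cell nuclei stained with SYTOX Green and counted against counting beads by flow cytometry at 488 nm excitation, with vinblastine (no S9) and cyclophosphamide (plus S9) as positive controls.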

CCN(CC)N=O [N-Nitrosodiethylamine]
Conditions | hypodiploid nuclei frequency, CHO-K1 [2] [%] | micronucleus frequency, CHO-K1 [1] [%] | relative survival, CHO-K1 [3]
concentration: 4.57 (µM), S9 metabolic activation: with S9, exposure time: 3-4 hours | 0.24 | 1.8 | 138
concentration: 4.57 (µM), S9 metabolic activation: without S9, exposure time: 24 hours | 0.36 | 2.18 | 143
concentration: 5.71 (µM), S9 metabolic activation: with S9, exposure time: 3-4 hours | 0.24 | 1.46 | 147
concentration: 5.71 (µM), S9 metabolic activation: without S9, exposure time: 24 hours | 0.44 | 1.96 | 121
concentration: 7.14 (µM), S9 metabolic activation: with S9, exposure time: 3-4 hours | 0.26 | 1.28 | 120
concentration: 7.14 (µM), S9 metabolic activation: without S9, exposure time: 24 hours | 0.56 | 2.12 | 133
concentration: 8.93 (µM), S9 metabolic activation: with S9, exposure time: 3-4 hours | 0.38 | 1.64 | 120
concentration: 8.93 (µM), S9 metabolic activation: without S9, exposure time: 24 hours | 0.62 | 1.6 | 113
concentration: 11.2 (µM), S9 metabolic activation: with S9, exposure time: 3-4 hours | 0.32 | 1.5 | 136
concentration: 11.2 (µM), S9 metabolic activation: without S9, exposure time: 24 hours | 0.5 | 1.6 | 136
concentration: 14 (µM), S9 metabolic activation: with S9, exposure time: 3-4 hours | 0.28 | 2.08 | 132
concentration: 14 (µM), S9 metabolic activation: without S9, exposure time: 24 hours | 0.6 | 2.44 | 128
concentration: 17.4 (µM), S9 metabolic activation: with S9, exposure time: 3-4 hours | 0.3 | 1.6 | 116
concentration: 17.4 (µM), S9 metabolic activation: without S9, exposure time: 24 hours | 0.54 | 1.8 | 101
concentration: 21.8 (µM), S9 metabolic activation: with S9, exposure time: 3-4 hours | 0.36 | 1.98 | 121
concentration: 21.8 (µM), S9 metabolic activation: without S9, exposure time: 24 hours | 0.66 | 2.42 | 98.5
concentration: 27.2 (µM), S9 metabolic activation: with S9, exposure time: 3-4 hours | 0.62 | 2.68 | 142
concentration: 27.2 (µM), S9 metabolic activation: without S9, exposure time: 24 hours | 0.78 | 2.78 | 107
concentration: 34.1 (µM), S9 metabolic activation: with S9, exposure time: 3-4 hours | 0.32 | 2.76 | 136
concentration: 34.1 (µM), S9 metabolic activation: without S9, exposure time: 24 hours | 1.06 | 2.74 | 140
concentration: 42.6 (µM), S9 metabolic activation: with S9, exposure time: 3-4 hours | 0.42 | 2 | 133
concentration: 42.6 (µM), S9 metabolic activation: without S9, exposure time: 24 hours | 0.82 | 3.02 | 119
concentration: 53.2 (µM), S9 metabolic activation: with S9, exposure time: 3-4 hours | 0.28 | 2.02 | 123
concentration: 53.2 (µM), S9 metabolic activation: without S9, exposure time: 24 hours | 0.76 | 2.3 | 135
concentration: 66.5 (µM), S9 metabolic activation: with S9, exposure time: 3-4 hours | 0.16 | 1.38 | 129
concentration: 66.5 (µM), S9 metabolic activation: without S9, exposure time: 24 hours | 0.74 | 3.4 | 128
concentration: 83.1 (µM), S9 metabolic activation: with S9, exposure time: 3-4 hours | 0.24 | 1.8 | 119
concentration: 83.1 (µM), S9 metabolic activation: without S9, exposure time: 24 hours | 0.88 | 3.62 | 119
concentration: 104 (µM), S9 metabolic activation: with S9, exposure time: 3-4 hours | 0.3 | 1.4 | 117
concentration: 104 (µM), S9 metabolic activation: without S9, exposure time: 24 hours | 0.94 | 2.88 | 130
concentration: 130 (µM), S9 metabolic activation: with S9, exposure time: 3-4 hours | 0.18 | 1.3 | 128
concentration: 130 (µM), S9 metabolic activation: without S9, exposure time: 24 hours | 1.44 | 3.34 | 120
concentration: 162 (µM), S9 metabolic activation: with S9, exposure time: 3-4 hours | 0.3 | 1.66 | 140
concentration: 162 (µM), S9 metabolic activation: without S9, exposure time: 24 hours | 1.3 | 3.6 | 114
concentration: 203 (µM), S9 metabolic activation: with S9, exposure time: 3-4 hours | 0.48 | 3.14 | 121
concentration: 203 (µM), S9 metabolic activation: without S9, exposure time: 24 hours | 1.2 | 3.36 | 97.1

CCCN(CCC)N=O [N-Nitrosodipropylamine]
Conditions | hypodiploid nuclei frequency, CHO-K1 [2] [%] | micronucleus frequency, CHO-K1 [1] [%] | relative survival, CHO-K1 [3]
concentration: 4.5 (µM), S9 metabolic activation: with S9, exposure time: 3-4 hours | 0.12 | 0.9 | 95.9
concentration: 4.5 (µM), S9 metabolic activation: without S9, exposure time: 24 hours | 0.44 | 1.24 | 136
concentration: 5.63 (µM), S9 metabolic activation: with S9, exposure time: 3-4 hours | 0.3 | 1.2 | 110
concentration: 5.63 (µM), S9 metabolic activation: without S9, exposure time: 24 hours | 0.6 | 2.22 | 125
concentration: 7.04 (µM), S9 metabolic activation: with S9, exposure time: 3-4 hours | 0.28 | 1.48 | 146
concentration: 7.04 (µM), S9 metabolic activation: without S9, exposure time: 24 hours | 0.56 | 1.28 | 107
concentration: 8.8 (µM), S9 metabolic activation: with S9, exposure time: 3-4 hours | 0.26 | 1 | 127
concentration: 8.8 (µM), S9 metabolic activation: without S9, exposure time: 24 hours | 0.62 | 1.4 | 116
concentration: 11 (µM), S9 metabolic activation: with S9, exposure time: 3-4 hours | 0.18 | 1.04 | 101
concentration: 11 (µM), S9 metabolic activation: without S9, exposure time: 24 hours | 0.44 | 1.4 | 113
concentration: 13.7 (µM), S9 metabolic activation: with S9, exposure time: 3-4 hours | 0.32 | 1.24 | 121
concentration: 13.7 (µM), S9 metabolic activation: without S9, exposure time: 24 hours | 0.54 | 1.74 | 116
concentration: 17.2 (µM), S9 metabolic activation: with S9, exposure time: 3-4 hours | 0.2 | 1.36 | 112
concentration: 17.2 (µM), S9 metabolic activation: without S9, exposure time: 24 hours | 0.4 | 1.68 | 111
concentration: 21.5 (µM), S9 metabolic activation: with S9, exposure time: 3-4 hours | 0.06 | 1.2 | 132
concentration: 21.5 (µM), S9 metabolic activation: without S9, exposure time: 24 hours | 0.68 | 1.64 | 111
concentration: 26.8 (µM), S9 metabolic activation: with S9, exposure time: 3-4 hours | 0.24 | 1.2 | 89.2
concentration: 26.8 (µM), S9 metabolic activation: without S9, exposure time: 24 hours | 0.7 | 3 | 95.4
concentration: 33.6 (µM), S9 metabolic activation: with S9, exposure time: 3-4 hours | 0.26 | 1.2 | 103
concentration: 33.6 (µM), S9 metabolic activation: without S9, exposure time: 24 hours | 0.38 | 1.82 | 84.2
concentration: 41.9 (µM), S9 metabolic activation: with S9, exposure time: 3-4 hours | 0.38 | 1.2 | 87.2
concentration: 41.9 (µM), S9 metabolic activation: without S9, exposure time: 24 hours | 0.68 | 1.88 | 91.5
concentration: 52.4 (µM), S9 metabolic activation: with S9, exposure time: 3-4 hours | 0.18 | 1.7 | 112
concentration: 52.4 (µM), S9 metabolic activation: without S9, exposure time: 24 hours | 0.54 | 1.58 | 76
concentration: 65.5 (µM), S9 metabolic activation: with S9, exposure time: 3-4 hours | 0.2 | 1.8 | 107
concentration: 65.5 (µM), S9 metabolic activation: without S9, exposure time: 24 hours | 0.58 | 1.52 | 106
concentration: 81.9 (µM), S9 metabolic activation: with S9, exposure time: 3-4 hours | 0.38 | 1.38 | 106
concentration: 81.9 (µM), S9 metabolic activation: without S9, exposure time: 24 hours | 0.52 | 1.72 | 78
concentration: 102 (µM), S9 metabolic activation: with S9, exposure time: 3-4 hours | 0.38 | 1.4 | 107
concentration: 102 (µM), S9 metabolic activation: without S9, exposure time: 24 hours | 0.58 | 1.86 | 79.4
concentration: 128 (µM), S9 metabolic activation: with S9, exposure time: 3-4 hours | 0.36 | 1.58 | 106
concentration: 128 (µM), S9 metabolic activation: without S9, exposure time: 24 hours | 0.94 | 1.96 | 85.4
concentration: 160 (µM), S9 metabolic activation: with S9, exposure time: 3-4 hours | 0.28 | 1.58 | 107
concentration: 160 (µM), S9 metabolic activation: without S9, exposure time: 24 hours | 0.82 | 1.54 | 76.7
concentration: 200 (µM), S9 metabolic activation: with S9, exposure time: 3-4 hours | 0.24 | 1.54 | 103
concentration: 200 (µM), S9 metabolic activation: without S9, exposure time: 24 hours | 0.58 | 1.72 | 79
